# “And” between values parts separate entries of the source, which are not always exact repeats. Equal values may be shown once. Out of some 110,000 compounds screened, about 230 (0.21%) showed an effect of 50% or more. The list shows a part of the results.
# Molecular target: DPAP1 (Plasmodium falciparum, UniProt Q8IIJ9)
# Assay: primary screen, percent inhibition; read by cleavage of a fluorogenic dipeptide substrate; higher = more effect of the substance
# Set-up: species or system P. falciparum D10 trophozoite lysates; single well
# 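Further: 30 min substrate incubation versus DMSO and 10 µM JCP410 controls.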
# Sequence of DPAP1 (Q8IIJ9 whole entry, looked up): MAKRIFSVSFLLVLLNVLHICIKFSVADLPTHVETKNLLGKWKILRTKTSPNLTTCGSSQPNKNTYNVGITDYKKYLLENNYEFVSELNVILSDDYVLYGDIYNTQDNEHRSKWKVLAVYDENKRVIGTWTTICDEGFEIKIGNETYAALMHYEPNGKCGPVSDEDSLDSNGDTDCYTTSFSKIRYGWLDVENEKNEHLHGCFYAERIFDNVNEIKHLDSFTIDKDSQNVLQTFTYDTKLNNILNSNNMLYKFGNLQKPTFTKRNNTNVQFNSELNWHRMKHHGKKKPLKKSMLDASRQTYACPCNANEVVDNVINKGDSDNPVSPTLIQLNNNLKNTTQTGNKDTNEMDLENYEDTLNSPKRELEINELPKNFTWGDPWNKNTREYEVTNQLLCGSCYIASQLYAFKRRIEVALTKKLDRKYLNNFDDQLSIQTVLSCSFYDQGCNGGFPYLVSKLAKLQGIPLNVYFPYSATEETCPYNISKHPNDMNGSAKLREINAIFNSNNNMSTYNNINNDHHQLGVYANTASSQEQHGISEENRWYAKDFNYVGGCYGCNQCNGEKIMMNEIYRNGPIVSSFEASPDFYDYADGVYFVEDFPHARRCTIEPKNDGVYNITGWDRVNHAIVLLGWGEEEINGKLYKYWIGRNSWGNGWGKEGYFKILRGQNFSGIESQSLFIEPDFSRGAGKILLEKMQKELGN
row,Compound,% Inhibition @ 10 uM
1,COCCNC(=O)C(CC(C)C)N1Cc2ccccc2C1=O (stereo not shown),1.31%
2,CCOc1ccc(NC(=O)Cn2cnc3c(=O)n(C)c(=O)n(C)c32)cc1,6.69%
3,CCOC(=O)N1CCC(NC(=O)CCc2c(C)nc3nc(C)nn3c2C)CC1,-0.465%
4,COc1ccc(S(=O)(=O)Nc2ccc(-c3cn4ccsc4n3)cc2)cc1OC,-0.99%
5,CCN1CCC(NC(c2ccccc2)c2ccccc2)CC1,-3.6%
6,COCC(=O)Nc1nc2nc(C)c(C)c(O)n2n1,0.401%
7,O=C(NCC1CCCO1)c1ccc(Cl)cc1 (stereo not shown),-6.44%
8,COc1ccc(-n2c(SCC(N)=O)nnc2-c2cccs2)cc1,-1.52%
9,C=CCN1C(=O)/C(=C\c2cccc(Cl)c2)C(C(=O)OC)=C1C,0.0538% and -5.26%
10,COC(=O)C1=CN(C)C=C(C(=O)OC)C1c1cc(OC)c(OC)c(OC)c1,-1.48%
11,Cc1ccccc1COc1ccc(/C=C2/C(=N)N3C(=NC2=O)SN=C3S(C)(=O)=O)cc1,1.85%
12,CSc1ccc(CCNC(=O)CCC(=O)N2Cc3ccccc3Oc3ncccc32)cc1,2.33%
13,CCC(C)c1ccccc1OCC(=O)Nc1cnc(O)nc1O (stereo not shown),1.96%
14,N#Cc1ccc(Oc2ccc(NC(=O)c3ccc(Br)o3)cc2)cc1,-0.63%
15,C/C(S)=N\c1c(O)[nH]c2ccccc12,-3.13%
16,Cc1ccc(C)n1-c1nnc(N2CCC(C(=O)N3CCN(c4ccccn4)CC3)CC2)s1,2.65%
17,CCCC(=O)Nc1ccc(C(=O)Nc2ccccc2OC)cc1,1.73%
18,Cc1ccc(OCC(=O)Nc2cccc(Cl)c2)cc1,-0.545%
19,Cc1ccc(-c2nc(CS(=O)(=O)CC(=O)NCCC(C)C)c(C)o2)cc1,-7.53%
20,CC(C)CSC1=NSC2=NC(=O)/C(=C\c3coc4ccccc4c3=O)C(=N)N12,17.4%
21,CCc1nnc(OCC(=O)NC2CCN(Cc3ccccc3)CC2)c2cc3cc(F)ccc3n12,4.79%
22,CCCS(=O)(=O)N1CCN(C2CCN(Cc3ccccc3)CC2)CC1,6.89%
23,CCOc1ccc(-c2[nH]nc3c2C(C2CC=CCC2)C(C#N)=C(N)O3)cc1 (stereo not shown),0.722%
24,Cc1ccc(C(C)C)c(OCC(O)CN2CCC(Cc3ccccc3)CC2)c1 (stereo not shown),0.565%
25,Cc1ccsc1CN1CCN(Cc2ccccc2)CC1,-9.41%

row,Compound,% Inhibition @ 10 uM
1,CCN1CCN(CC(c2ccccc2)c2ccccc2)CC1,-4.14%
2,Cc1[nH]c(-c2ccc(F)cc2)cc1C(=O)N(C)Cc1ccco1,1.68%
3,COc1c(Cl)cc(C(=O)Nc2nc3ccccc3s2)cc1Cl,18.3%
4,COc1ccc(-c2nn(C)c(=O)c3ccccc23)cc1CNC(=O)c1cccs1,-5.24%
5,CC(N)Cc1ccccc1Sc1ccc(O)cc1 (stereo not shown),-4.12%
6,Cc1nc2cc(NC(=O)CNS(=O)(=O)c3c(C)c(C)cc(C)c3C)ccc2s1,-2.98%
7,Cc1cc(O)nc2sc(C(=O)c3ccc(Br)cc3)c(N)c12,3.01%
8,CCCN1C(=O)c2[nH]nc(-c3ccccc3O)c2C1c1ccccc1F (stereo not shown),2.02%
9,Brc1ccc(OCCCCCCN2CCCCC2)cc1,3%
10,CC(O)CN(Cc1c(Cl)cccc1Cl)CC(C)O (stereo not shown),-5.26%
11,Cc1ccc(C2=NN(CCC(=O)NCCc3ccc(Cl)cc3)C(=O)CC2)cc1,-5.43%
12,Cc1ccc(Nc2nc(Cl)nc(N(c3ccccc3)c3ccccc3)n2)cc1,-5.5%
13,CCc1ccc(/C=C2\C(=O)NN(c3ccc(Cl)c(Cl)c3)C2=O)cc1,-5.23%
14,COc1cccc(C2=N/C(=C\C=C\c3ccccc3OC)C(=O)O2)c1,-1.33%
15,CC(=O)Nc1ccc(-c2ccc(OCc3ccccc3F)cc2)cc1,-0.925%
16,O=C(C(=O)N1CCCN(c2ncc(C(F)(F)F)cc2Cl)CC1)c1c[nH]c2ccccc12,2.51%
17,CC(=O)Nc1cccc(Oc2nc(-c3ccccc3F)nc3ccccc23)c1,0.755%
18,Cc1cccn2c(=O)c(/C=C(\C#N)S(=O)(=O)c3ccccc3)c(Oc3ccccc3)nc12,-3.23%
19,O=S(=O)(c1ccc(F)cc1)N1CCN(c2ncccn2)CC1,1.7%
20,COc1cccc(C(=O)Nc2c3c(nc4ccccc24)CCCC3)c1,-3.23%
21,CC(C)C[C@H](NC(=O)c1cccc(-c2ccccn2)c1)C(=O)NCC#N,2.87%
22,COc1ccc(N2C(=O)CC(N3CCN(CCO)CC3)C2=O)cc1 (stereo not shown),-9.49%
23,Clc1nc(Nc2cccc3ccccc23)nc(N2CCOCC2)n1,-2.51%
24,CCN1CCC(C#N)(NC(=O)[C@H](C[C@H](C)c2ccccc2)NC(=O)c2ccc(-c3cc(C(=O)O)ccc3Cl)cc2)CC1,-0.207%

# Source: article PMC6919601, “Identification of Plasmodium dipeptidyl aminopeptidase allosteric inhibitors by high throughput screening” (PLoS ONE, 2019)
